Reference: the supplement of paper PMC8285479
Counter-ions that a name gives are not always drawn. ± gives the standard deviation of the averaged measurements. The full ranking holds about 1,900 compounds; the median of “normalised cell viability (NPI; 0 = phenylarsine oxide control, 1 = DMSO control)” is about 1, and the lowest 2% start at about 0.039. Some of the results follow.

Tested on: NCI-H1944
Experiment: normalised cell viability (NPI; 0 = phenylarsine oxide control, 1 = DMSO control) (fraction of DMSO control); NCI-H1944 is a non-small cell lung cancer line; higher = more viable cells (less compound toxicity)
Conditions: 6 days
[1] = glucocorticoid arm: hydrocortisone 2.75 uM co-treatment, compound 1 µM
[2] = glucocorticoid arm: hydrocortisone 2.75 uM co-treatment, compound 5 µM
[3] = glucocorticoid arm: hydrocortisone 2.75 uM pre-treated 2 days and continued, compound 1 µM
[4] = glucocorticoid arm: hydrocortisone 2.75 uM pre-treated 2 days and continued, compound 5 µM
[5] = glucocorticoid arm: vehicle, compound 1 µM
[6] = glucocorticoid arm: vehicle, compound 5 µM
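Also: CTB read-out in 384-well plates, mean of triplicate wells, normalised per plate against 1 µM phenylarsine oxide and 0.1% DMSO, compounds added 24 h after seeding.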

| SMILES | normalised cell viability [1] | normalised cell viability [2] | normalised cell viability [3] | normalised cell viability [4] | normalised cell viability [5] | normalised cell viability [6] |
| --- | --- | --- | --- | --- | --- | --- |
| COc1ccc(Cc2nccc3cc(OC)c(OC)cc23)cc1OC [Papaverine hydrochloride] | 0.9937 ± 0.0023 | 0.969 ± 0.007 | 0.989 ± 0.0062 | 1.01 ± 0.026 | 1.013 ± 0.0058 | 1.02 ± 0.017 |
| CNCCc1c[nH]c2ccc(O)cc12 [N-omega-Methyl-5-hydroxytryptamine oxalate salt] | 0.99 ± 0.01 | 0.958 ± 0.035 | 0.986 ± 0.011 | 1 ± 0.086 | 0.97567 ± 0.00058 | 0.977 ± 0.013 |
| NCCCP(=O)(O)O [3-Aminopropylphosphonic acid] | 1.001 ± 0.0081 | 1 ± 0.02 | 1.01 | 0.9885 ± 0.0021 | 0.996 ± 0.0069 | 1.003 ± 0.0061 |
| CN1C2CC(O)CC1C1OC12 (stereo unspecified) [Scopine] | 1.02 ± 0.02 | 0.985 ± 0.028 | 1.02 ± 0.011 | 1.01 | 1.003 ± 0.0064 | 1.01 ± 0.035 |
| O=C[C@H](Cl)[C@@H](O)[C@H](O)[C@H](O)CO [2-Chloro-2-deoxy-D-glucose] | 1 ± 0.013 | 0.9953 ± 0.0015 | 1.01 ± 0.012 | 0.994 ± 0.01 | 0.9807 ± 0.0011 | 0.9817 ± 0.0067 |
| NNC(N)=O [Semicarbazide hydrochloride] | 1 ± 0.0087 | 1 ± 0.013 | 1.02 ± 0.035 | 1.01 ± 0.01 | 0.9933 ± 0.0011 | 0.986 ± 0.003 |
| CNCC(=O)c1ccc(O)c(O)c1 [Adrenalone HCl] | 1.01 ± 0.01 | 1 ± 0.018 | 1.01 ± 0.01 | 1.02 ± 0.015 | 1.001 ± 0.0082 | 1.007 ± 0.0058 |
| C=C(C)[C@H]1Cc2c(ccc3c2O[C@@H]2COc4cc(OC)c(OC)cc4[C@@H]2C3=O)O1 [Rotenone] | 0.627 ± 0.064 | 0.39 ± 0.013 | 0.969 ± 0.016 | 0.685 ± 0.094 | 0.22 ± 0.011 | 0.115 ± 0.019 |
| COC(=O)C1=CCCN(C)C1 [Arecoline hydrobromide] | 1 ± 0.021 | 1.01 ± 0.022 | 0.988 ± 0.014 | 1 | 0.999 ± 0.011 | 1.007 ± 0.0058 |
| COC(=O)C1=CCCN(C)C1 [Arecoline] | 0.994 ± 0.02 | 0.9957 ± 0.0059 | 1 ± 0.016 | 1 ± 0.012 | 0.995 ± 0.007 | 1.007 ± 0.0058 |
| N[C@@H](CCl)C(=O)O [beta-Chloro-L-alanine hydrochloride] | 1.002 ± 0.0076 | 1.01 ± 0.015 | 0.9987 ± 0.0023 | 0.985 ± 0.036 | 0.991 ± 0.01 | 0.99 ± 0.011 |
| Fc1ccc(C(OCCN2CCN(CCCc3ccccc3)CC2)c2ccc(F)cc2)cc1 | 0.963 ± 0.014 | 0.601 ± 0.013 | 0.991 ± 0.013 | 1.01 ± 0.027 | 1.01 ± 0.01 | 0.721 ± 0.28 |
| CC[C@H]1CN2CCc3cc(OC)c(OC)cc3[C@@H]2C[C@@H]1C[C@H]1NCCc2cc(OC)c(OC)cc21 [Emetine dihydrochloride hydrate] | 0.0625 ± 0.016 | 0.0175 ± 0.00036 | 0.342 ± 0.016 | 0.165 ± 0.0093 | 0.0125 ± 0.001 | 0.0108 ± 0.0029 |
| COc1cc([C@@H]2c3cc4c(cc3[C@H](O)[C@H]3COC(=O)[C@H]23)OCO4)cc(OC)c1OC [Podophyllotoxin] | 0.338 ± 0.0087 | 0.278 ± 0.027 | 0.927 ± 0.019 | 0.892 ± 0.07 | 0.0738 ± 0.0056 | 0.057 ± 0.011 |
| CS(=N)(=O)CC[C@H](N)C(=O)O (stereo partly drawn) [L-Methionine sulfoximine] | 1.003 ± 0.0058 | 1.01 ± 0.024 | 0.998 ± 0.01 | 0.948 ± 0.093 | 0.9987 ± 0.0023 | 1 ± 0.013 |
| CCN(CCCl)CCOC(C)=O [Acetylethylcholine mustard hydrochloride] | 1.01 ± 0.015 | 1.02 ± 0.034 | 1.01 ± 0.013 | 1.11 ± 0.061 | 0.995 ± 0.0046 | 1.01 ± 0.015 |
| COc1ccc2c(c1)/C(=C/c1cnc[nH]1)C(=O)N2 | 1.03 ± 0.015 | 0.24 ± 0.0031 | 1.03 | 0.871 ± 0.28 | 0.9907 ± 0.006 | 0.132 ± 0.041 |
| CCCN(CCC)CCc1ccc(O)c(O)c1 [Dipropyldopamine hydrobromide] | 0.997 ± 0.015 | 0.999 ± 0.018 | 0.9943 ± 0.0081 | 0.984 ± 0.024 | 0.9893 ± 0.0042 | 0.9947 ± 0.0015 |
| Ic1ccccc1CNC1C2CCN(CC2)C1C(c1ccccc1)c1ccccc1 [L-703,606 oxalate] | 0.9813 ± 0.0067 | 0.699 ± 0.05 | 1.013 ± 0.0058 | 1.04 ± 0.086 | 1.013 ± 0.0058 | 0.132 ± 0.059 |
| NCCc1c[nH]c2ccc(O)cc12 [Serotonin hydrochloride] | 1 ± 0.015 | 0.98 ± 0.015 | 1 ± 0.013 | 0.964 ± 0.021 | 1.02 ± 0.01 | 1.01 ± 0.01 |
| CCC(COC(=O)c1cc(OC)c(OC)c(OC)c1)(c1ccccc1)N(C)C (stereo unspecified) [Trimebutine] | 0.969 ± 0.017 | 0.921 ± 0.0092 | 0.978 ± 0.017 | 0.936 ± 0.032 | 0.9893 ± 0.0093 | 0.9927 ± 0.0031 |
| C=C(C)[C@@H]1[C@H]2OC(=O)[C@@H]1[C@]1(O)C[C@H]3OC34C(=O)O[C@H]2[C@@]41C.CC(C)(O)[C@@H]1[C@H]2OC(=O)[C@@H]1[C@]1(O)C[C@H]3OC34C(=O)O[C@H]2[C@@]41C (stereo partly specified) [Picrotoxin] | 0.991 ± 0.012 | 0.998 ± 0.028 | 0.995 ± 0.0061 | 0.9897 ± 0.0091 | 1.005 ± 0.0087 | 1.001 ± 0.0081 |
| CCCN1CCc2cc(O)cc3c2[C@H]1Cc1ccc(O)c(O)c1-3 [R(-)-2,10,11-Trihydroxy-N-propylnoraporphine hydrobromide] | 0.989 ± 0.023 | 0.979 ± 0.012 | 0.987 ± 0.015 | 0.959 ± 0.0066 | 0.977 ± 0.011 | 0.971 ± 0.016 |
| C[C@@]12N[C@@H](Cc3ccccc31)c1ccccc12 [(-)-MK 801 Maleate] | 1.023 ± 0.0058 | 1.02 | 1.02 ± 0.011 | 1.03 ± 0.015 | 1.01 | 1.01 |
| C[C@@]12N[C@@H](Cc3ccccc31)c1ccccc12 [(-)-MK-801 hydrogen maleate] | 1.01 ± 0.01 | 1.02 ± 0.026 | 1.013 ± 0.0058 | 1.05 ± 0.094 | 0.992 ± 0.0092 | 1 ± 0.017 |
| CCCN(CCC)[C@@H]1CCc2cccc(O)c2C1 [R-(+)-8-Hydroxy-DPAT hydrobromide] | 0.995 ± 0.0087 | 0.972 ± 0.017 | 0.9973 ± 0.0046 | 0.996 ± 0.015 | 1.013 ± 0.0058 | 1.002 ± 0.0076 |
